According to US20230093708A1 (DUKE UNIVERSITY, published 2023):

B1: RLP40-ELP80-Fn3 (designed binder)
chain: QYPSDGRGQYPSDGRGQYPSDGRGQYPSDGRGQYPSDGRGQYPSDGRGQYPSDGRGQYPSDGRGQYPSDGRGQYPSDGRGQYPSDGRGQYPSDGRGQYPSDGRGQYPSDGRGQYPSDGRGQYPSDGRGQYPSDGRGQYPSDGRGQYPSDGRGQYPSDGRGQYPSDGRGQYPSDGRGQYPSDGRGQYPSDGRGQYPSDGRGQYPSDGRGQYPSDGRGQYPSDGRGQYPSDGRGQYPSDGRGQYPSDGRGQYPSDGRGQYPSDGRGQYPSDGRGQYPSDGRGQYPSDGRGQYPSDGRGQYPSDGRGQYPSDGRGQYPSDGRGGAGVPGGGVPGAGVPGGGVPGAGVPGGGVPGAGVPGGGVPGAGVPGGGVPGAGVPGGGVPGAGVPGGGVPGAGVPGGGVPGAGVPGGGVPGAGVPGGGVPGAGVPGGGVPGAGVPGGGVPGAGVPGGGVPGAGVPGGGVPGAGVPGGGVPGAGVPGGGVPGAGVPGGGVPGAGVPGGGVPGAGVPGGGVPGAGVPGGGVPGAGVPGGGVPGAGVPGGGVPGAGVPGGGVPGAGVPGGGVPGAGVPGGGVPGAGVPGGGVPGAGVPGGGVPGAGVPGGGVPGAGVPGGGVPGAGVPGGGVPGAGVPGGGVPGAGVPGGGVPGAGVPGGGVPGAGVPGGGVPGAGVPGGGVPGAGVPGGGVPGAGVPGGGVPGAGVPGGGVPGAGVPGGGVPGAGVPGGGVPVSDVPRDLEVVAATPTSLLISWDAPAVTVRYYRITYGETGGNSPVQEFTVPGSKSTATISGLKPGVDYTITVYAVTGRGDSPASSKPISINYRTG
notes: Self-assembled spherical micelle; In the cell assays about 10% of the chains carried Alexa488; also called spherical micelles; Fn3-decorated spherical micelles
B2: RLP80-ELP80-Fn3 (designed binder)
chain: QYPSDGRGQYPSDGRGQYPSDGRGQYPSDGRGQYPSDGRGQYPSDGRGQYPSDGRGQYPSDGRGQYPSDGRGQYPSDGRGQYPSDGRGQYPSDGRGQYPSDGRGQYPSDGRGQYPSDGRGQYPSDGRGQYPSDGRGQYPSDGRGQYPSDGRGQYPSDGRGQYPSDGRGQYPSDGRGQYPSDGRGQYPSDGRGQYPSDGRGQYPSDGRGQYPSDGRGQYPSDGRGQYPSDGRGQYPSDGRGQYPSDGRGQYPSDGRGQYPSDGRGQYPSDGRGQYPSDGRGQYPSDGRGQYPSDGRGQYPSDGRGQYPSDGRGQYPSDGRGQYPSDGRGQYPSDGRGQYPSDGRGQYPSDGRGQYPSDGRGQYPSDGRGQYPSDGRGQYPSDGRGQYPSDGRGQYPSDGRGQYPSDGRGQYPSDGRGQYPSDGRGQYPSDGRGQYPSDGRGQYPSDGRGQYPSDGRGQYPSDGRGQYPSDGRGQYPSDGRGQYPSDGRGQYPSDGRGQYPSDGRGQYPSDGRGQYPSDGRGQYPSDGRGQYPSDGRGQYPSDGRGQYPSDGRGQYPSDGRGQYPSDGRGQYPSDGRGQYPSDGRGQYPSDGRGQYPSDGRGQYPSDGRGQYPSDGRGQYPSDGRGQYPSDGRGQYPSDGRGGAGVPGGGVPGAGVPGGGVPGAGVPGGGVPGAGVPGGGVPGAGVPGGGVPGAGVPGGGVPGAGVPGGGVPGAGVPGGGVPGAGVPGGGVPGAGVPGGGVPGAGVPGGGVPGAGVPGGGVPGAGVPGGGVPGAGVPGGGVPGAGVPGGGVPGAGVPGGGVPGAGVPGGGVPGAGVPGGGVPGAGVPGGGVPGAGVPGGGVPGAGVPGGGVPGAGVPGGGVPGAGVPGGGVPGAGVPGGGVPGAGVPGGGVPGAGVPGGGVPGAGVPGGGVPGAGVPGGGVPGAGVPGGGVPGAGVPGGGVPGAGVPGGGVPGAGVPGGGVPGAGVPGGGVPGAGVPGGGVPGAGVPGGGVPGAGVPGGGVPGAGVPGGGVPGAGVPGGGVPGAGVPGGGVPGAGVPGGGVPVSDVPRDLEVVAATPTSLLISWDAPAVTVRYYRITYGETGGNSPVQEFTVPGSKSTATISGLKPGVDYTITVYAVTGRGDSPASSKPISINYRTG
notes: Self-assembled mixture of spherical and worm-like micelles; every other place prints 97; In the cell assays about 10% of the chains carried Alexa488; also called worm-like micelles; Fn3-decorated worm-like micelles
B3: RLP20-ELP80-Fn3 (designed binder)
chain: QYPSDGRGQYPSDGRGQYPSDGRGQYPSDGRGQYPSDGRGQYPSDGRGQYPSDGRGQYPSDGRGQYPSDGRGQYPSDGRGQYPSDGRGQYPSDGRGQYPSDGRGQYPSDGRGQYPSDGRGQYPSDGRGQYPSDGRGQYPSDGRGQYPSDGRGQYPSDGRGGAGVPGGGVPGAGVPGGGVPGAGVPGGGVPGAGVPGGGVPGAGVPGGGVPGAGVPGGGVPGAGVPGGGVPGAGVPGGGVPGAGVPGGGVPGAGVPGGGVPGAGVPGGGVPGAGVPGGGVPGAGVPGGGVPGAGVPGGGVPGAGVPGGGVPGAGVPGGGVPGAGVPGGGVPGAGVPGGGVPGAGVPGGGVPGAGVPGGGVPGAGVPGGGVPGAGVPGGGVPGAGVPGGGVPGAGVPGGGVPGAGVPGGGVPGAGVPGGGVPGAGVPGGGVPGAGVPGGGVPGAGVPGGGVPGAGVPGGGVPGAGVPGGGVPGAGVPGGGVPGAGVPGGGVPGAGVPGGGVPGAGVPGGGVPGAGVPGGGVPGAGVPGGGVPGAGVPGGGVPGAGVPGGGVPGAGVPGGGVPVSDVPRDLEVVAATPTSLLISWDAPAVTVRYYRITYGETGGNSPVQEFTVPGSKSTATISGLKPGVDYTITVYAVTGRGDSPASSKPISINYRTG
notes: also called unimer; monomer ligand

Experiments:
human αvβ3 integrin [1] = biological target: T1, human αvβ3 integrin (human, UniProt P06756 31-992; P05106 27-718); assay: SPR (Biacore T200), human αvβ3 integrin amine-coupled to a CM5 chip, 25 °C, heterogeneous ligand model
T1 construct: extracellular domain; also called ectodomain of human αvβ3 integrin; the integrin
Protocol: (§1) The surface plasmon resonance experiments were performed using Biacore T200. Purified human αvβ3 integrin (Chemicon, Temecula, Calif.) were immobilized on research grade CM5 sensor chips using an amine coupling kit (BIAcore, Piscataway, N.J.). The integrin was diluted in 10 mM sodium acetate buffer (pH 4.5) for conjugation with a surface density of approximately 600 resonance units (RU). The measurements of binding events were performed using block co-polypeptide concentrations ranging between 2.5 and 10 μM. The block polypeptides were diluted in HBS-P buffer (10 mM HEPES, 140 mM NaCl, 0.005% Triton-X, pH 7.4) supplemented with 2 mM CaCl₂, and injected into the flow cells at a flow rate of 30 μL·min⁻¹ for 4 min. The complex was allowed for dissociation for 10 min. The surface was regenerated with 10 mM Glycine-HCl (pH 2.5) at a flow rate of 30 μL·min⁻¹ for 45 s, followed by 10 mM Glycine-HCl (pH 2.0) at a flow rate of 30 μL·min⁻¹ for 30 s. The surface was regenerated using 10 mM glycine-HCL (pH 2.0). Kinetic modeling and simulations were performed using BIAevaluation software with the heterogeneous ligand model for self-assembled proteins and with a 1:1 ligand model for the unimeric protein (RLP20-ELP80-Fn3). The equilibrium binding constants (KD1 and KD2) for each experiment were calculated by dividing kinetic dissociation rate (koff) by association rate (kₒₙ), from which the mean K_{D1/2} was derived. All SPR measurements were carried out at 25° C. The SPR measurements were carried out using polypeptide concentrations ranging between 2.5 and 10 μM. Goodness-of-fit was evaluated by analyzing residual plots and residual sum of squares.
We next used surface plasmon resonance (SPR) to characterize the avidity of the RLPXX-ELP80-Fn3 (SEQ ID NO: 95-97) fusions to the ectodomain of human αvβ3 integrin. SPR sensorgrams were generated for binding of the Fn3-functionalized RLP-ELP80 block co-polypeptides at concentrations ranging between 2.5 and 10 μM. As the core block size increases, the kₒₙ increases in magnitude, and the koff decreases in magnitude, both consistent with the increase in size of the binding unit (unimer or larger diameter micelle).

[2] = biological target: αvβ3 integrin on αvβ3-transfected K562 cells (UniProt P06756 31-1048; P05106 27-788); assay: cell-based or functional assay
human αvβ3 integrin [3] = biological target: T1, human αvβ3 integrin; assay: SPR (Biacore T200), integrin immobilised on CM5 chip, 2.5-10 µM polypeptide
T1 sequence (P06756 31-992, chain 1 of 2): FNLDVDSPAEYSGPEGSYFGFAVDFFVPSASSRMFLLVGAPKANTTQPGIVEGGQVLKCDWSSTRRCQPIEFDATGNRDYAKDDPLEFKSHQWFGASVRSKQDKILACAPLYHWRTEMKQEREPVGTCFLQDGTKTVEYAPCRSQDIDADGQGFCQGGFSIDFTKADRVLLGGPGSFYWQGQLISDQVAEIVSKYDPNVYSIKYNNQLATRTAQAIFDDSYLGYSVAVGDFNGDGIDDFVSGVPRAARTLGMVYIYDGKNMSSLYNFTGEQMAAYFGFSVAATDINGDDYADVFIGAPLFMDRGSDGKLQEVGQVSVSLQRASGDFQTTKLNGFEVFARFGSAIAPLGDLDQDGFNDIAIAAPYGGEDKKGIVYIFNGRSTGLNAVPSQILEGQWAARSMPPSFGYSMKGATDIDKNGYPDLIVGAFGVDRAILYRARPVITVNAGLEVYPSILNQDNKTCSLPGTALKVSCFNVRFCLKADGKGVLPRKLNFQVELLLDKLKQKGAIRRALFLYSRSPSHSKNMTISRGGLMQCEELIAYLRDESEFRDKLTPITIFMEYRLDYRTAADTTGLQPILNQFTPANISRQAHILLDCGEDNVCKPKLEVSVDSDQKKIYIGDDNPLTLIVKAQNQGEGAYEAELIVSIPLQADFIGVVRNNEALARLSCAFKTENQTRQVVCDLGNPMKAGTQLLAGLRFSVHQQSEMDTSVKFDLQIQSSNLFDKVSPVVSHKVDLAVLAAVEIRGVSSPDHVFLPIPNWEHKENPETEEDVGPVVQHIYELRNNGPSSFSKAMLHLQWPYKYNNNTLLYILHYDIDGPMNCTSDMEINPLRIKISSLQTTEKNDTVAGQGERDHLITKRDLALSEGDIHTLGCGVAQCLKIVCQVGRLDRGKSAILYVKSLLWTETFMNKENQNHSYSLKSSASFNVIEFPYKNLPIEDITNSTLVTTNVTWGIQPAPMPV
T1 sequence (P05106 27-718, chain 2 of 2, further chain): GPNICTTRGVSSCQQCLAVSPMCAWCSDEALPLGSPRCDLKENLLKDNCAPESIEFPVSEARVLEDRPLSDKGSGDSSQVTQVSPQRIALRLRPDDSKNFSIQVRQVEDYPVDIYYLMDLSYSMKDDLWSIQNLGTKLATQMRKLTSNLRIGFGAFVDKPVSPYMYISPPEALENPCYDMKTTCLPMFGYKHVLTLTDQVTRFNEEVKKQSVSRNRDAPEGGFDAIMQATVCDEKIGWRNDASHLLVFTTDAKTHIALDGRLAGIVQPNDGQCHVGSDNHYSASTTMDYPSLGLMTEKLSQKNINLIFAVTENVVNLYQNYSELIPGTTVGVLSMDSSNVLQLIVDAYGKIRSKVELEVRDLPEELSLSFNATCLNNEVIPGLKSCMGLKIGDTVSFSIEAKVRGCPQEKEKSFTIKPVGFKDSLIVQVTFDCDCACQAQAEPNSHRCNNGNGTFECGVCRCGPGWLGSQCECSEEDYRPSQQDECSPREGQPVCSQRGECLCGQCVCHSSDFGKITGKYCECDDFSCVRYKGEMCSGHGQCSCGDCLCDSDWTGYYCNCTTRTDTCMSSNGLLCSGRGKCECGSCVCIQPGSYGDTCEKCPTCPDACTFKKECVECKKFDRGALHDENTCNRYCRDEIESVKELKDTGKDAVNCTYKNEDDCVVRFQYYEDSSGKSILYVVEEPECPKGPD
Protocol: as §1, with “Kinetic modeling and simulations were performed using BIAevaluation software with the heterogeneous ligand model for self-assembled proteins and with a 1:1 ligand model for the unimeric protein (RLP20-ELP80-Fn3).” left out, “All SPR measurements were carried out at 25° C. The SPR measurements were carried out using polypeptide concentrations ranging between 2.5 and 10 μM.” left out, “squares. […]” for “squares.”

human αvβ3 integrin [4] = biological target: T1, human αvβ3 integrin; assay: SPR (Biacore T200), human αvβ3 integrin amine-coupled to a CM5 chip, 25 °C, 1:1 model
Protocol: as §1
We next used surface plasmon resonance (SPR) to characterize the avidity of the RLPXX-ELP80-Fn3 (SEQ ID NO: 95-97) fusions to the ectodomain of human αvβ3 integrin. SPR sensorgrams were generated for binding of the Fn3-functionalized RLP-ELP80 block co-polypeptides at concentrations ranging between 2.5 and 10 μM. […]

Binder | Kd (human αvβ3 integrin [1]) [nM] | koff (human αvβ3 integrin [1]) [s⁻¹] | kon (human αvβ3 integrin [1]) [M⁻¹ s⁻¹] | fold of geometric fluorescent intensity mean over the undecorated control [2] [fold] | fold increase in avidity against RLP20-ELP80-Fn3 (human αvβ3 integrin [3]) [fold] | fold increase in cell uptake compared to spherical micelles [2] [fold] | fold increase in avidity against the monomer ligand (RLP20-ELP80-Fn3) (human αvβ3 integrin [3]) [fold] | Kd (human αvβ3 integrin [4]) [nM] | koff (human αvβ3 integrin [4]) [s⁻¹] | kon (human αvβ3 integrin [4]) [M⁻¹ s⁻¹]
B1 | 78.9 | 0.000335 | 4240 | 2 | 10 |  |  |  |  | 
B2 | 0.786 | 3.2e-06 | 4060 | 3 |  | 5 | ~1000 |  |  | 
B3 |  |  |  |  |  |  |  | 954 | 0.00457 | 4790
